Results published in EPA's CvTdb concentration-time database.
Further values from the same series stand in other lists.

Columns and labels:
Assay in all cases: concentration in plasma after dosing
Rat [1] = conditions: dosed: Perfluorohexane-1-sulphonic acid – potassium salt, 4 mg/kg, oral, Male, F344
Rat [2] = conditions: 96 h; dosed: Perfluorohexane-1-sulphonic acid – potassium salt; 16 mg/kg; oral; Female; Harlan Sprague Dawley
Rat [3] = conditions: dosed: Perfluorohexane-1-sulphonic acid – potassium salt, 4 mg/kg, Female, F344
Rat [4] = conditions: 192 h; dosed: Perfluorohexane-1-sulphonic acid – potassium salt; 16 mg/kg; oral; Female; Harlan Sprague Dawley
Rat [5] = conditions: 48 h; dosed: Perfluorohexane-1-sulphonic acid – potassium salt; 16 mg/kg; oral; Female; Harlan Sprague Dawley
Rat [6] = conditions: dosed: Perfluorohexane-1-sulphonic acid – potassium salt, 32 mg/kg, oral, Male, Harlan Sprague Dawley
Rat [7] = conditions: dosed: Perfluorohexane-1-sulphonic acid – potassium salt, 4 mg/kg, oral, Female, F344
Rat [8] = conditions: 192 h; dosed: Perfluorohexane-1-sulphonic acid – potassium salt; 16 mg/kg; oral; Female; F344
Rat [9] = conditions: dosed: Perfluorohexane-1-sulphonic acid – potassium salt, 4 mg/kg, Female, F344; remark: listed apart in the source
Rat [10] = conditions: dosed: Perfluorohexane-1-sulphonic acid – potassium salt, 4 mg/kg, oral, Female, Harlan Sprague Dawley
Rat [11] = conditions: dosed: Perfluorohexane-1-sulphonic acid – potassium salt, 4 mg/kg, Female, F344; remark: listed apart in the source
Rat [12] = conditions: 6 h; dosed: Perfluorohexane-1-sulphonic acid – potassium salt; 16 mg/kg; oral; Female; F344
Rat [13] = conditions: dosed: Perfluorohexane-1-sulphonic acid – potassium salt, 32 mg/kg, oral, Male, Harlan Sprague Dawley; remark: listed apart in the source
Rat [14] = conditions: dosed: Perfluorohexane-1-sulphonic acid – potassium salt, 4 mg/kg, Female, F344; remark: listed apart in the source
Rat [15] = conditions: dosed: Perfluorohexane-1-sulphonic acid – potassium salt, 32 mg/kg, oral, Male, F344
Rat [16] = conditions: 1 h; dosed: Fluorotelomer alcohol 8+2; 80 mg/kg; oral; Female; Harlan Sprague Dawley
Rat [17] = conditions: 6 h; dosed: Fluorotelomer alcohol 8+2; 80 mg/kg; oral; Female; Harlan Sprague Dawley
Rat [18] = conditions: dosed: Fluorotelomer alcohol 8+2, 48 mg/kg, oral, Male, Harlan Sprague Dawley
Rat [19] = conditions: 12 h; dosed: Fluorotelomer alcohol 8+2; 80 mg/kg; oral; Female; Harlan Sprague Dawley
Rat [20] = conditions: 1 h; dosed: Fluorotelomer alcohol 8+2; 24 mg/kg; oral; Male; Harlan Sprague Dawley
Rat [21] = conditions: dosed: Fluorotelomer alcohol 8+2, 24 mg/kg, oral, Male, Harlan Sprague Dawley
Rat [22] = conditions: 0.5 h; dosed: Fluorotelomer alcohol 8+2; 160 mg/kg; oral; Female; Harlan Sprague Dawley
Rat [23] = conditions: dosed: Fluorotelomer alcohol 8+2, 48 mg/kg, oral, Male, Harlan Sprague Dawley; remark: listed apart in the source
Rat [24] = conditions: dosed: Fluorotelomer alcohol 8+2, 160 mg/kg, oral, Female, Harlan Sprague Dawley
Rat [25] = conditions: 3 h; dosed: Fluorotelomer alcohol 8+2; 160 mg/kg; oral; Female; Harlan Sprague Dawley
Rat [26] = conditions: dosed: Fluorotelomer alcohol 8+2, 24 mg/kg, oral, Male, Harlan Sprague Dawley; remark: listed apart in the source
Rat [27] = conditions: dosed: Isoeugenol, 17 mg/kg, iv, Female, F344/N
Rat [28] = conditions: dosed: Isoeugenol, 17 mg/kg, iv, Female, F344/N; remark: listed apart in the source
Rat [29] = conditions: dosed: Isoeugenol, 70 mg/kg, oral, Female, F344/N
Rat [30] = conditions: dosed: Isoeugenol, 140 mg/kg, oral, Female, F344/N
Rat [31] = conditions: dosed: Isoeugenol, 70 mg/kg, oral, Female, F344/N; remark: listed apart in the source
Rat [32] = conditions: dosed: Isoeugenol, 70 mg/kg, oral, Female, F344/N; remark: listed apart in the source

O=S(=O)([O-])C(F)(F)C(F)(F)C(F)(F)C(F)(F)C(F)(F)C(F)(F)F.[K+] [Perfluorohexane-1-sulphonic acid – potassium salt]
Conditions | concentration in plasma [ng/mL]
Rat [1], 6 h | 25100
Rat [1], 96 h | 8260
Rat [3], 6 h | 30500
Rat [3], 192 h | 506
Rat [6], 3 h | 153000
Rat [6], 192 h | 90600
Rat [6], 1200 h | 10200
Rat [7], 0.25 h | 10100
Rat [7], 12 h | 27600
Rat [7], 192 h | 2510
Rat [9], 0.5 h | 39700
Rat [9], 24 h | 30000
Rat [9], 1200 h | 6940
Rat [10], 3 h | 23300
Rat [10], 48 h | 11000
Rat [11], 3 h | 40700
Rat [11], 5 min | 70200
Rat [11], 528 h | 8630
Rat [13], 1 h | 114000
Rat [13], 24 h | 178000
Rat [13], 864 h | 9990
Rat [14], 1 h | 39900
Rat [14], 192 h | 13900
Rat [15], 3 h | 146000
Rat [15], 48 h | 52400
Rat [15], 528 h | 93

Conditions | concentration in plasma [ng/mL]
Rat [2] | 20100
Rat [4] | 6010
Rat [5] | 43800
Rat [8] | 71000
Rat [12] | 125000

O=C(O)CCC(F)(F)C(F)(F)C(F)(F)C(F)(F)C(F)(F)C(F)(F)C(F)(F)F [Fluorotelomer acid 7+3]
Conditions | concentration in plasma [ng/mL]
Rat [16] | 1550
Rat [17] | 4380
Rat [19] | 1530
Rat [20] | 712
Rat [22] | 373
Rat [25] | 7990

Conditions | concentration in plasma [ng/mL]
Rat [18], 0.5 h | 373
Rat [18], 9 h | 916
Rat [21], 0.25 h | 40.8
Rat [21], 24 h | 709
Rat [23], 48 h | 321
Rat [23], 192 h | 75.9
Rat [24], 0.5 h | 730
Rat [24], 9 h | 3340
Rat [26], 0.75 h | 261
Rat [26], 48 h | 304

C/C=C/c1ccc(O)c(OC)c1 [Isoeugenol]
Conditions | concentration in plasma [ng/mL]
Rat [27], 0.5 h | 888
Rat [27], 4 h | 42.2
Rat [28], 1 h | 245
Rat [28], 2 h | 97.5
Rat [29], 4 h | 545
Rat [29], 10 min | 635
Rat [30], 0.5 h | 1300
Rat [30], 5 h | 733
Rat [31], 0.5 h | 1260
Rat [31], 6 h | 158
Rat [32], 2 h | 523
Rat [32], 20 min | 717
